The record followed here is article PMC12820563.

This is one part of the list. The list includes weakly bound sequences.

This test deals with T1, MBP-FoxP3dN (UniProt Q99JB6).
T1 sequence: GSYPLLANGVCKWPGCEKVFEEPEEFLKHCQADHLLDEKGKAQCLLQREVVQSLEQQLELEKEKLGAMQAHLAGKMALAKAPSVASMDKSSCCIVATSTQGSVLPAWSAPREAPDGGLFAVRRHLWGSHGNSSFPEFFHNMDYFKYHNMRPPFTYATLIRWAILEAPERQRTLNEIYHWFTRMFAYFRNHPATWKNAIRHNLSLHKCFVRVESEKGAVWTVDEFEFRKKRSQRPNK
The test can be described thus: PD-seq (MBP pull-down with sequencing). The settings on record: 20 mM Tris-HCl pH 7.5, 100 mM NaCl, 1.5 mM MgCl2, 0.4 uM protein, 0.1 uM dsDNA library, 30 min, room temperature, amylose pull-down; high values mean tight binding; double strand, one strand shown.
On to “GATGATTGTTCTCCCAGCTGATGAATTTACTCTATCGAGTAAACAAATTTTCCTAATCTTTCTGTTCAAGCGCCATCTAC”, for which the binding signal (RPM ratio (pull-down/input)) is 0.459.
The figure for “GATGATTGTTCTCCCAGCTGATGAATTTCCCTGTTCGAGTAAACAAATTTTCCTAATCTTTCTGTTCAAGCGCCATCTAC” is 0.235.
The figure for “GATGATTGTTCTCCCAGCTGATGAATTACTGCTATCGAGTAAACAAATTTTCCTAATCTTTCTGTTCAAGCGCCATCTAC” is 0.645; for “GATGATTGTTCTCCCAGCTGATGAATTACTAAACTCGAGTAAACAAATTTTCCTAATCTTTCTGTTCAAGCGCCATCTAC” it is 0.403.
With “GATGATTGTTCTCCCAGCTGATGAATTGCTCCAGTCGAGTAAACAAATTTTCCTAATCTTTCTGTTCAAGCGCCATCTAC” the figure was 0.32; with “GATGATTGTTCTCCCAGCTGATGAATTATACGGGTCGAGTAAACAAATTTTCCTAATCTTTCTGTTCAAGCGCCATCTAC”, 0.316.
Turning to “GATGATTGTTCTCCCAGCTGATGAATTTTTTCATTCGAGTAAACAAATTTTCCTAATCTTTCTGTTCAAGCGCCATCTAC”, the binding signal (RPM ratio (pull-down/input)) was 0.258.
With “GATGATTGTTCTCCCAGCTGATGAATTTTGACGTTCGAGTAAACAAATTTTCCTAATCTTTCTGTTCAAGCGCCATCTAC” the figure was 0.933; with “GATGATTGTTCTCCCAGCTGATGAATTGGCCGTCTCGAGTAAACAAATTTTCCTAATCTTTCTGTTCAAGCGCCATCTAC”, 0.336; with “GATGATTGTTCTCCCAGCTGATGAATTATCTTCATCGAGTAAACAAATTTTCCTAATCTTTCTGTTCAAGCGCCATCTAC”, 0.359.
Consider “GATGATTGTTCTCCCAGCTGATGAATTCAGCTGATCGAGTAAACAAATTTTCCTAATCTTTCTGTTCAAGCGCCATCTAC”, for which the binding signal (RPM ratio (pull-down/input)) was determined as 0.532.
With “GATGATTGTTCTCCCAGCTGATGAATTGCGTGGATCGAGTAAACAAATTTTCCTAATCTTTCTGTTCAAGCGCCATCTAC” the figure was 1.08; with “GATGATTGTTCTCCCAGCTGATGAATTGTGCGTATCGAGTAAACAAATTTTCCTAATCTTTCTGTTCAAGCGCCATCTAC”, 3.11.
With “GATGATTGTTCTCCCAGCTGATGAATTAAAGCCGTCGAGTAAACAAATTTTCCTAATCTTTCTGTTCAAGCGCCATCTAC” the figure was 0.531; with “GATGATTGTTCTCCCAGCTGATGAATTAGTCGGTTCGAGTAAACAAATTTTCCTAATCTTTCTGTTCAAGCGCCATCTAC”, 0.644; with “GATGATTGTTCTCCCAGCTGATGAATTACAGAATTCGAGTAAACAAATTTTCCTAATCTTTCTGTTCAAGCGCCATCTAC”, 0.649.
With “GATGATTGTTCTCCCAGCTGATGAATTTCCCACATCGAGTAAACAAATTTTCCTAATCTTTCTGTTCAAGCGCCATCTAC” the figure was 0.334.
On to “GATGATTGTTCTCCCAGCTGATGAATTTTAATAGTCGAGTAAACAAATTTTCCTAATCTTTCTGTTCAAGCGCCATCTAC”, for which the binding signal (RPM ratio (pull-down/input)) came out at 1.14.
With “GATGATTGTTCTCCCAGCTGATGAATTAATCCCGTCGAGTAAACAAATTTTCCTAATCTTTCTGTTCAAGCGCCATCTAC” the figure was 0.261; with “GATGATTGTTCTCCCAGCTGATGAATTCCTCGATTCGAGTAAACAAATTTTCCTAATCTTTCTGTTCAAGCGCCATCTAC”, 0.24.
With “GATGATTGTTCTCCCAGCTGATGAATTTTAATTATCGAGTAAACAAATTTTCCTAATCTTTCTGTTCAAGCGCCATCTAC” the figure was 2.58; with “GATGATTGTTCTCCCAGCTGATGAATTAGTTAAATCGAGTAAACAAATTTTCCTAATCTTTCTGTTCAAGCGCCATCTAC”, 0.299.
Take “GATGATTGTTCTCCCAGCTGATGAATTTCAAACGTCGAGTAAACAAATTTTCCTAATCTTTCTGTTCAAGCGCCATCTAC”: the binding signal (RPM ratio (pull-down/input)) was 0.302.
With “GATGATTGTTCTCCCAGCTGATGAATTGGTGATGTCGAGTAAACAAATTTTCCTAATCTTTCTGTTCAAGCGCCATCTAC”, the binding signal (RPM ratio (pull-down/input)) stood at 1.26.
The figure for “GATGATTGTTCTCCCAGCTGATGAATTGATGGATTCGAGTAAACAAATTTTCCTAATCTTTCTGTTCAAGCGCCATCTAC” is 0.504.
With “GATGATTGTTCTCCCAGCTGATGAATTTAATTGCTCGAGTAAACAAATTTTCCTAATCTTTCTGTTCAAGCGCCATCTAC” the figure was 3.76; with “GATGATTGTTCTCCCAGCTGATGAATTACTCTCTTCGAGTAAACAAATTTTCCTAATCTTTCTGTTCAAGCGCCATCTAC”, 0.279; with “GATGATTGTTCTCCCAGCTGATGAATTTATATCTTCGAGTAAACAAATTTTCCTAATCTTTCTGTTCAAGCGCCATCTAC”, 1.4.
With “GATGATTGTTCTCCCAGCTGATGAATTTCTCGGATCGAGTAAACAAATTTTCCTAATCTTTCTGTTCAAGCGCCATCTAC” the figure was 0.173.
Turning to “GATGATTGTTCTCCCAGCTGATGAATTACGTTTGTCGAGTAAACAAATTTTCCTAATCTTTCTGTTCAAGCGCCATCTAC”, the binding signal (RPM ratio (pull-down/input)) was found to be 3.25.
Turning to “GATGATTGTTCTCCCAGCTGATGAATTAACGGCATCGAGTAAACAAATTTTCCTAATCTTTCTGTTCAAGCGCCATCTAC”, the binding signal (RPM ratio (pull-down/input)) was found to be 0.796.
